Test results: a collection of fitness landscapes (doi:10.1126/science.1257360)
The list shows a part of the results.

B1: PhoQ; a variant is named by its letters at X, in order, P23837 (parent)
chain: MKKLLRLFFPLSLRVRFLLATAAVVLVLSLAYGMVALIGYSVSFDKTTFRLLRGESNLFYTLAKWENNKLHVELPENIDKQSPTMTLIYDENGQLLWAQRDVPWLMKMIQPDWLKSNGFHEIEADVNDTSLLLSGDHSIQQQLQEVREDDDDAEMTHSVAVNVYPATSRMPKLTIVVVDTIPVELKSSYMVWSWFIYVLSANLLLVIPLLWVAAWWSLRPIEALAKEVRELEEHNRELLNPATTRELTSLVRNLNRLLKSERERYDKYRTTLTDLTHSLKTPLXXLQXXLRSLRSEKMSVSDAEPVMLEQISRISQQIGYYLHRASMRGGTLLSRELHPVAPLLDNLTSALNKVYQRKGVNISLDISPEISFVGEQNDFVEVMGNVLDNACKYCLEFVEISARQTDEHLYIVVEDDGPGIPLSKREVIFDRGQRVDTLRPGQGVGLAVAREITEQYEGKIVAGESMLGGARMEVIFGRQHSAPKDE

Variants of: B1
Experiment: enrichment ratio after two sorts for PhoP signalling (ratio (wild type AVST 3.29)); higher = more functional
Conditions: with PhoP (E. coli)
For SVIK, the enrichment ratio was at most 0.25. For LSLY, the enrichment ratio was at most 0.25. With NFVM the enrichment ratio was at most 0.25. Work on SISS yielded an enrichment ratio of 10. Variant EYHK has an enrichment ratio of at most 0.25. Variant PVTK has an enrichment ratio of at most 0.25. Variant KRDI has an enrichment ratio of at most 0.25. FESG was tested, and the enrichment ratio was at most 0.25. YQSV gave an enrichment ratio of at most 0.25. In the case of LWKS, the enrichment ratio is reported as at most 0.25. For NTPQ, the enrichment ratio was at most 0.25. YRVA showed an enrichment ratio of at most 0.25. NCCF showed an enrichment ratio of at most 0.25. For EHCW, the enrichment ratio was at most 0.25. Variant TNMG has an enrichment ratio of at most 0.25. Variant QMNA has an enrichment ratio of 3.16. With NMME the enrichment ratio was at most 0.25. WAFG was tested, and the enrichment ratio was at most 0.25. With AWFI the enrichment ratio was at most 0.25. In the case of AKAQ, the enrichment ratio is reported as 7.28. With WYRR the enrichment ratio was at most 0.25. RLGK was tested, and the enrichment ratio was at most 0.25. LQNY showed an enrichment ratio of at most 0.25. QVMA was tested, and the enrichment ratio was at most 0.25. KEQM was tested, and the enrichment ratio was at most 0.25. Variant KQYH has an enrichment ratio of at most 0.25. With TIHW the enrichment ratio was at most 0.25. For NIWP, the enrichment ratio was at most 0.25. In the case of ATFT, the enrichment ratio is reported as at most 0.25. With LLTW the enrichment ratio was at most 0.25. VKLR gave an enrichment ratio of at most 0.25. NPHH gave an enrichment ratio of at most 0.25. TYHD showed an enrichment ratio of at most 0.25. QKYR gave an enrichment ratio of at most 0.25. Work on YPVS yielded an enrichment ratio of at most 0.25. For NIGF, the enrichment ratio was at most 0.25. With THVP the enrichment ratio was at most 0.25. With WTST the enrichment ratio was at most 0.25. For IKCC, the enrichment ratio was at most 0.25. With DNAC the enrichment ratio was at most 0.25. With YKSR the enrichment ratio was at most 0.25. FKSD gave an enrichment ratio of at most 0.25. Work on NLKS yielded an enrichment ratio of at most 0.25. FWEK was tested, and the enrichment ratio was at most 0.25. Work on VAWS yielded an enrichment ratio of at most 0.25. LSII was tested, and the enrichment ratio was at most 0.25. Work on RAFH yielded an enrichment ratio of at most 0.25. For AGVY, the enrichment ratio was 18.3. QQQY was tested, and the enrichment ratio was at most 0.25. HGMS showed an enrichment ratio of at most 0.25. Work on IPKR yielded an enrichment ratio of at most 0.25. Variant PIYD has an enrichment ratio of at most 0.25. For YPMD, the enrichment ratio was at most 0.25. With WAWI the enrichment ratio was at most 0.25. Variant YCSM has an enrichment ratio of at most 0.25. With GFNT the enrichment ratio was at most 0.25. RVNI showed an enrichment ratio of at most 0.25. Work on IRHV yielded an enrichment ratio of at most 0.25. In the case of GKSQ, the enrichment ratio is reported as at most 0.25. For ICCP, the enrichment ratio was at most 0.25. WPNQ showed an enrichment ratio of at most 0.25. Work on NRRM yielded an enrichment ratio of at most 0.25. LAYV showed an enrichment ratio of 2.7. EIKN was tested, and the enrichment ratio was at most 0.25. HCFS showed an enrichment ratio of at most 0.25. QTRF gave an enrichment ratio of at most 0.25. YNYE gave an enrichment ratio of at most 0.25. Variant NPWR has an enrichment ratio of at most 0.25. DIFI showed an enrichment ratio of at most 0.25. RRYS showed an enrichment ratio of at most 0.25. WGFR gave an enrichment ratio of at most 0.25. HFTS showed an enrichment ratio of at most 0.25. For IKFV, the enrichment ratio was at most 0.25. For RKNQ, the enrichment ratio was at most 0.25. Work on KFAM yielded an enrichment ratio of at most 0.25. For PFGN, the enrichment ratio was at most 0.25. EVVH was tested, and the enrichment ratio was at most 0.25. SNRL showed an enrichment ratio of at most 0.25. With IKLY the enrichment ratio was at most 0.25. In the case of NFMD, the enrichment ratio is reported as at most 0.25. For MCFL, the enrichment ratio was 7.86. With SHRC the enrichment ratio was at most 0.25. VKFW gave an enrichment ratio of at most 0.25. Variant ENDM has an enrichment ratio of at most 0.25. With KGLV the enrichment ratio was at most 0.25. HYYE gave an enrichment ratio of at most 0.25. Work on NYNR yielded an enrichment ratio of at most 0.25. PVSI showed an enrichment ratio of at most 0.25. In the case of WEAY, the enrichment ratio is reported as at most 0.25. TYAE was tested, and the enrichment ratio was at most 0.25. For QQAA, the enrichment ratio was at most 0.25. AFRH gave an enrichment ratio of at most 0.25. For ANAF, the enrichment ratio was 5. With RTLL the enrichment ratio was at most 0.25. In the case of RDFA, the enrichment ratio is reported as at most 0.25. In the case of YNWC, the enrichment ratio is reported as at most 0.25. In the case of TKAT, the enrichment ratio is reported as 14.5. Variant LNCD has an enrichment ratio of at most 0.25. RMNM gave an enrichment ratio of at most 0.25. VHVP was tested, and the enrichment ratio was at most 0.25. NEGK gave an enrichment ratio of at most 0.25. In the case of DKVV, the enrichment ratio is reported as at most 0.25. With ILHG the enrichment ratio was at most 0.25. For REES, the enrichment ratio was at most 0.25. Work on DSYG yielded an enrichment ratio of at most 0.25. ANTQ gave an enrichment ratio of 6.43. Variant TWRR has an enrichment ratio of at most 0.25. For FKGN, the enrichment ratio was at most 0.25. In the case of QCSL, the enrichment ratio is reported as 7.28. Variant LHCE has an enrichment ratio of at most 0.25. For HAAF, the enrichment ratio was at most 0.25. Work on PKCE yielded an enrichment ratio of at most 0.25. Variant VILG has an enrichment ratio of 0.779. With ESFC the enrichment ratio was 2.33. With VRHQ the enrichment ratio was at most 0.25. QQID showed an enrichment ratio of at most 0.25. DQRC gave an enrichment ratio of at most 0.25. In the case of KTAK, the enrichment ratio is reported as at most 0.25. In the case of LHVI, the enrichment ratio is reported as at most 0.25. Work on MEAG yielded an enrichment ratio of at most 0.25. IPMA was tested, and the enrichment ratio was at most 0.25. In the case of EVGY, the enrichment ratio is reported as at most 0.25. FCIH was tested, and the enrichment ratio was at most 0.25. With PEYT the enrichment ratio was at most 0.25. EYGD showed an enrichment ratio of at most 0.25. With MFSL the enrichment ratio was at most 0.25. In the case of WPQF, the enrichment ratio is reported as at most 0.25. Work on QHYY yielded an enrichment ratio of at most 0.25. Variant MRPI has an enrichment ratio of at most 0.25. Work on SQVA yielded an enrichment ratio of 4.56. For DYNM, the enrichment ratio was at most 0.25. For TNIE, the enrichment ratio was at most 0.25. Work on SWDH yielded an enrichment ratio of at most 0.25. For DLML, the enrichment ratio was at most 0.25. Variant PGVS has an enrichment ratio of at most 0.25. SVRS showed an enrichment ratio of at most 0.25. SAKD was tested, and the enrichment ratio was at most 0.25. AIVW was tested, and the enrichment ratio was at most 0.25. Variant MGAL has an enrichment ratio of 15.5. Variant VFDN has an enrichment ratio of at most 0.25. In the case of TKPY, the enrichment ratio is reported as at most 0.25. With KSCH the enrichment ratio was at most 0.25. HENW showed an enrichment ratio of at most 0.25. With TMIR the enrichment ratio was at most 0.25. For QCLF, the enrichment ratio was at most 0.25. For HHSG, the enrichment ratio was at most 0.25. SLMG gave an enrichment ratio of 4.54. Variant SEVW has an enrichment ratio of at most 0.25. MSMQ gave an enrichment ratio of 5.89. Variant VLCG has an enrichment ratio of at most 0.25. FEYS gave an enrichment ratio of at most 0.25. KNYQ was tested, and the enrichment ratio was at most 0.25. In the case of FNDI, the enrichment ratio is reported as at most 0.25.
